Test results: the supplement of paper PMC4967469
IC50 is the fitted dose that halves viability relative to control wells, and lower means more sensitive; where the fit passes the top or lowest dose, that dose stands as a limit. AUC is the area under the same curve over the 256-fold range up to the top dose, as a fraction; the more sensitive the line, the further below 1. For some assays here: The top dose, if marked as inferred, comes from the curve model; the source does not state it.

What was measured:
Test in all cases: Viability of human cancer cell lines after 72 h of drug (GDSC screen)
[1] = compound: CC[C@H](CO)Nc1nc(NCc2ccccc2)c2ncn(C(C)C)c2n1 [Roscovitine]; conditions: top dose 16 µM; top dose inferred
Procedure: (§1)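 Human cancer cell lines in 384-well plates, medium with 10% serum, drug for 72 h over a 256-fold dose range (nine 2-fold or five 4-fold steps up to the top dose). Adherent lines were fixed and stained with the nucleic acid dye Syto60, suspension lines read with resazurin; signal relative to control wells, capped at 0 and 100%. One two-parameter sigmoid per drug and line, fitted in a mixed model over all curves with the slope shared within a line.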

[2] = compound: CO[C@@H]1[C@H](N(C)C(=O)c2ccccc2)C[C@H]2O[C@]1(C)n1c3ccccc3c3c4c(c5c6ccccc6n2c5c31)C(=O)NC4 [Midostaurin]; conditions: top dose 0.512 µM; top dose inferred
Procedure: as §1

[3] = compound: COc1cc(Nc2c(C#N)cnc3cc(OCCCN4CCN(C)CC4)c(OC)cc23)c(Cl)cc1Cl [Bosutinib]; conditions: top dose 2 µM
Procedure: as §1

[4] = compound: Cc1ccc(C(=O)Nc2cccc(C(F)(F)F)c2)cc1Nc1nc(-c2cccnc2)nc2c1cnn2C [NVP-BHG712]; conditions: top dose 10.24 µM; top dose inferred
Procedure: as §1

[5] = compound: O=C(O)CNC(=O)c1c(O)c2ccccc2n(Cc2ccccc2)c1=O [IOX2]; conditions: top dose 0.1 µM; top dose inferred
Procedure: as §1

[6] = compound: CO[C@@]12[C@H](COC(N)=O)C3=C(C(=O)C(C)=C(N)C3=O)N1C[C@@H]1N[C@@H]12 [Mitomycin C]; conditions: top dose 16 µM
Procedure: as §1

Cell Line | AUC [1] | IC50 [1] [nM] | AUC [2] | IC50 [2] [nM] | AUC [3] | IC50 [3] [nM] | AUC [4] | IC50 [4] [nM] | AUC [5] | IC50 [5] [nM] | AUC [6] | IC50 [6] [nM]
RL95-2 (endometrium, adherent) | 0.943 | > 16000 | 0.873 | 485 | 0.905 | > 2000 | 0.881 | > 10200 | 0.985 | > 100 |  | 
LS-1034 (large intestine, adherent) | 0.928 | > 16000 | 0.879 | > 512 | 0.985 | > 2000 | 0.822 | 6810 | 0.98 | > 100 |  | 
TALL-1 (T-cell lymphoblastic leukaemia, suspension) | 0.935 | > 16000 | 0.99 | > 512 |  |  | 0.969 | > 10200 |  |  | 0.639 | 2370
KG-1 (acute myeloid leukaemia, suspension) | 0.985 | > 16000 |  |  |  |  | 0.825 | 5280 | 0.989 | > 100 | 0.406 | 568
NCI-H748 (small cell lung carcinoma, suspension) | 0.91 | > 16000 | 0.941 | > 512 |  |  | 0.972 | > 10200 |  |  | 0.192 | 89.3
H9 (lymphoid neoplasm, suspension) | 0.963 | > 16000 | 0.871 | 341 | 0.981 | > 2000 | 0.753 | 2880 | 0.988 | > 100 |  | 
A3-KAW (B-cell lymphoma, suspension) | 0.79 | 5590 | 0.891 | 386 | 0.983 | > 2000 | 0.721 | 2320 | 0.992 | > 100 |  | 
RS4-11 (leukaemia, suspension) | 0.886 | 15100 |  |  |  |  | 0.85 | 6780 | 0.988 | > 100 | 0.124 | 73.4
NB5 (neuroblastoma, adherent) | 0.971 | > 16000 |  |  | 0.981 | > 2000 | 0.844 | 7470 | 0.981 | > 100 | 0.426 | 625
TK (B-cell lymphoma, suspension) | 0.978 | > 16000 | 0.935 | > 512 | 0.982 | > 2000 | 0.897 | > 10200 | 0.982 | > 100 |  | 
NB17 (neuroblastoma, adherent) | 0.962 | > 16000 | 0.953 | > 512 | 0.978 | > 2000 | 0.89 | > 10200 |  |  |  | 
H-EMC-SS (chondrosarcoma, adherent) | 0.945 | > 16000 | 0.899 | > 512 |  |  | 0.702 | 2830 |  |  | 0.508 | 1060
KP-N-YS (neuroblastoma, adherent) | 0.958 | > 16000 | 0.887 | > 512 |  |  | 0.893 | > 10200 |  |  |  | 
TC-71 (Ewing sarcoma, adherent) | 0.992 | > 16000 |  |  |  |  | 0.91 | 10200 | 0.992 | > 100 | 0.52 | 1120
NOMO-1 (acute myeloid leukaemia, suspension) | 0.909 | > 16000 | 0.972 | > 512 | 0.847 | 1790 | 0.744 | 3580 | 0.98 | > 100 |  | 
NK-92MI (lymphoid neoplasm, suspension) | 0.922 | > 16000 | 0.752 | 159 |  |  |  |  |  |  | 0.205 | 147
UACC-257 (melanoma, adherent) | 0.907 | > 16000 |  |  | 0.976 | > 2000 | 0.805 | 6750 | 0.978 | > 100 |  | 
P32-ISH (Burkitt lymphoma, suspension) | 0.99 | > 16000 | 0.857 | 262 | 0.932 | 1920 | 0.599 | 1120 | 0.992 | > 100 |  | 
SCC-3 (B-cell lymphoma, suspension) | 0.887 | 9450 | 0.997 | > 512 |  |  | 0.997 | > 10200 |  |  | 0.114 | 107
TE-441-T (rhabdomyosarcoma, adherent) | 0.947 | > 16000 | 0.923 | > 512 |  |  | 0.961 | > 10200 |  |  | 0.559 | 1440
KASUMI-1 (acute myeloid leukaemia, suspension) | 0.985 | > 16000 |  |  | 0.871 | 1900 |  |  | 0.984 | > 100 |  | 
SIG-M5 (acute myeloid leukaemia, suspension) | 0.828 | 6730 | 0.81 | 192 |  |  | 0.188 | 106 |  |  | 0.069 | 66.1
NCI-H2196 (small cell lung carcinoma, adherent) | 0.982 | > 16000 | 0.973 | > 512 |  |  | 0.885 | > 10200 |  |  | 0.477 | 865
NCI-H128 (small cell lung carcinoma, suspension) | 0.979 | > 16000 |  |  |  |  |  |  |  |  |  | 
ECC12 (stomach, suspension) | 0.952 | > 16000 | 0.843 | 507 |  |  |  |  |  |  |  | 
DMS-114 (small cell lung carcinoma, adherent) | 0.959 | > 16000 | 0.984 | > 512 | 0.985 | > 2000 | 0.973 | > 10200 | 0.964 | > 100 |  | 
CMK (acute myeloid leukaemia, suspension) | 0.949 | > 16000 |  |  | 0.975 | > 2000 | 0.923 | > 10200 | 0.99 | > 100 | 0.095 | 63.5
D-336MG (glioma, adherent) | 0.95 | > 16000 | 0.695 | 133 | 0.939 | > 2000 | 0.896 | > 10200 | 0.899 | > 100 |  | 
